Measurements as given in PubChem BioAssay AID463173 (ICCB-Longwood Screening Facility, Harvard Medical School, 2010).
Among all 52,000 compounds or so, about 4,300 (8.3%) were called active. Cut-off read from the data, not from the text of the source: active = survival mostly below about 52% (no sharp cut-off); inactive = mostly above about 56%. Some of the results follow.

system: DeltatarO mutant; experiment: S. aureus survival, RN4220 and DeltatarO strains – OD600, teichoic acid synthesis inhibitors, primary screen (AID 463173); settings: S. aureus RN4220 wild type/DeltatarO growth, OD600, 18 h, hits give low values, screened at 18.75 µg/mL (by protocol)

Row | SMILES | survival
1 | COc1cccc(C2C(C(=O)Nc3ccc(C)cc3C)=C(C)Nc3nc4ccccc4n32)c1OC (configuration not stated) | inactive: 81%
2 | CCN(CC)S(=O)(=O)N1CCN(S(=O)(=O)N2CCOCC2)CC1 | inactive: 103%
3 | Fc1ccc2c(c1)-c1nc(-c3ccccc3)cc(-c3ccccc3)c1CO2 | inactive: 67%
4 | C=CCN1C(=O)C2C(C(=O)NCc3ccccc3)C3C=CC2(O3)C1C(=O)NC(C)(C)C (configuration not stated) | inactive: 65%
5 | Cn1c(=O)n(C)c2cc(/C=C(\C#N)C(N)=C(C#N)C#N)ccc21 | inactive: 118%
6 | COc1ccc(N(C(=O)c2cccc(C)c2)S(=O)(=O)c2ccc(Cl)cc2)cc1 | inactive: 68%
7 | CC(C)CCNC(=O)c1cnc2sc(N3CCCCC3)nn2c1=O | inactive: 83%
8 | CC(NC(=O)C1CCN(c2nc3ccccc3nc2C(F)(F)F)CC1)c1ccccc1 (configuration not stated) | active: 37%
9 | CCCCN(CC)CCCNC(=O)Nc1sc2nc3n(c(=O)c2c1C)CCC(C)CC3 (configuration not stated) | inactive: 132%
10 | CCCCNC(=O)c1cccc(-n2c(C)nc3cccnc32)c1 | inactive: 90%
11 | CCCS(=O)(=O)N1CCCC(C(=O)NCCOC)C1 (configuration not stated) | inactive: 55%
12 | COC(=O)c1cc2c(cc1N)OCCO2 | inactive: 88%
13 | C=Cc1ccc(C=C)cc1 | inactive: 79%
14 | O=C(CN1C(=O)CCc2cc(S(=O)(=O)N3CCOCC3)ccc21)Nc1cccc(C(F)(F)F)c1 | inactive: 83%
15 | CCCCCCOc1ccc(C2C(=O)N(C3CCCCC3)CC(=O)N2CCCC)cc1 (configuration not stated) | inactive: 103%
16 | CCOc1cccc(C(=O)Nc2cc(-c3ccc(C)cc3)no2)c1 | inactive: 70%
17 | CN(C)c1ccc(CNC(=O)CCS(=O)(=O)c2ccc3c(c2)oc(=O)n3C)cc1 | inactive: 82%
18 | CCCCN1C(C(=O)c2ccccc2)=C(OC(C)=O)c2ccccc2S1(=O)=O | active: -4%
19 | Cc1noc(Cn2c(=O)c3cc4c(cc3n(CC(=O)Nc3ccccc3Br)c2=O)OCO4)n1 | inactive: 117%

Row | SMILES | survival
20 | COc1ccc(NC(=O)CNC(=O)Cn2c(C)cc3ccccc3c2=O)cc1OC | inactive: 62%
21 | CCCn1c(N2CCN(C(=O)N3CCCCC3)CC2)nc2ccccc21 | inactive: 99%
22 | COc1ccc(C)cc1N(C)C(=O)c1c2c(nc3ccccc13)C(=O)N(C1CCCCC1)C2 | inactive: 70%
23 | CC(C)N(Cc1ccccc1)S(=O)(=O)c1ccc(F)cc1 | inactive: 96%
24 | COc1ccc(CNS(=O)(=O)c2ccc(-c3cnc(C4CC4)o3)cc2)cc1 | inactive: 83%
25 | CCOc1ccc(N(CC)S(=O)(=O)N2CCCC(C(=O)Nc3cc(Cl)ccc3OC)C2)cc1 (configuration not stated) | inactive: 83%
26 | COc1ccc(Nc2ncc(C(=O)N3CCN(c4ccc(F)cc4)CC3)c3ccccc23)cc1 | inactive: 64%
27 | CCOc1ccc(NCc2cccn2-c2nnc(N3CCC(C(=O)NCCOC)CC3)s2)cc1 | inactive: 67%
28 | C=C(C)Cn1c(=O)c2c(nc3n2CCN3c2ccc(F)cc2)n(C)c1=O | inactive: 86%
29 | Cc1cc(=O)n2nc(N3CCC(C(=O)NCc4ccc(F)cc4)CC3)sc2n1 | inactive: 95%
30 | Cc1ccccc1Nc1cc(C(=O)NCc2cccs2)c2ccccc2n1 | inactive: 84%
31 | CCOc1ccc(Cn2c(CNS(=O)(=O)c3cccc(Cl)c3)nc3cccnc32)cc1 | inactive: 94%
32 | CCc1ccc(NC(=O)CSc2nc3c(sc4ccccc43)c(=O)n2CCCOC(C)C)cc1 | inactive: 73%
33 | COc1ccccc1C(=O)N1CCN(Cc2cc(=O)oc3cc(C)ccc23)CC1 | active: 38%
34 | Cc1ccc(NCc2nnc(SCc3nc4ccccc4c(=O)[nH]3)n2Cc2ccco2)c(C)c1 | inactive: 75%
35 | COc1ccc(-c2nc3ccc(NS(=O)(=O)c4ccc(Cl)cc4)cc3o2)cc1 | active: 23%
36 | Cc1ccc(CNC(=O)c2ccc(CSCc3ccccc3C)o2)cc1 | inactive: 70%
37 | COc1ccc(-c2nc3scc(CCNS(=O)(=O)c4ccc(NC(C)=O)cc4)n3n2)cc1 | inactive: 79%
38 | O=S(=O)(NC1CC1)c1ccc(S(=O)(=O)N(Cc2ccccn2)C2CC2)cc1 | inactive: 91%

Row | SMILES | survival
39 | CCOC(=O)c1ccc(NC2SC(=O)N(Cc3cccc(C(=O)O)c3)C2=O)cc1 (configuration not stated) | inactive: 60%
40 | COc1cc2nc(SCC(=O)Nc3ccccc3F)n3nc(-c4ccccc4)nc3c2cc1OC | inactive: 65%
41 | CCC(C)NC(=O)c1cccc(NC(=O)c2nsc3ccccc23)c1 (configuration not stated) | inactive: 74%
42 | COc1ccccc1NC(=O)CSC1=Nc2ccccc2C2=NC(CCC(=O)NCc3cccs3)C(=O)N12 (configuration not stated) | inactive: 79%
43 | COc1ccc(-n2cc(C(=O)NCc3ccccc3Cl)c3ccccc3c2=O)cc1 | inactive: 108%
44 | CCCc1cc(-c2ccc(O)c(OCC)c2)c(C#N)c(N)n1 | inactive: 66%
45 | CCCCN(CC)C(=O)Cn1ncc2c3ccccc3n(CCC)c2c1=O | inactive: 77%
46 | CCOc1cccc(C(=O)N(Cc2ccc(CC)cc2)C2CCS(=O)(=O)C2)c1 (configuration not stated) | inactive: 149%
47 | CCCNC(=O)Cn1nc(-c2ccc(F)cc2)c2cnc3ccc(F)cc3c21 | inactive: 83%
48 | COc1ccc(C)cc1NC(=O)Cn1c(=O)ccc2cc(S(=O)(=O)N3CCC(C)CC3)ccc21 | inactive: 95%
49 | CCOc1ccc(CCNC(=O)c2ccc(CS(=O)Cc3cccc(Cl)c3)o2)cc1 (configuration not stated) | inactive: 50%
50 | COC(=O)c1ccc(NC(=O)CSc2ncc3c(n2)-c2cc(Cl)ccc2N(Cc2ccccc2)S3(=O)=O)cc1 | inactive: 58%
51 | COc1ccc(NC(=O)c2c(NCc3sccc3C)sc3c2CCCCC3)c(OC)c1 | inactive: 85%
52 | Cc1ccc2c(=O)c(C(=O)c3ccc(Cl)cc3)cn(CC(=O)NC3CCCCC3)c2n1 | inactive: 71%
53 | O=S(=O)(c1ccc(F)cc1)N(Cc1nc(-c2ccc(Cl)cc2)no1)C1CCCCC1 | inactive: 76%
54 | Cc1ccccc1-c1nnc(SCC(=O)c2ccccc2)o1 | inactive: 98%
55 | Cc1ccc(C)c(OCC(=O)Nc2ccc(S(=O)(=O)Nc3onc(C)c3C)cc2)c1C | inactive: 165%
56 | CCC(C(=O)Nc1ccccc1OC)n1nc(C)c2sc3ccccc3c2c1=O (configuration not stated) | inactive: 75%
57 | COc1cccc(-n2c(C)c3c(OC)cccc(=O)c3c2C)c1 | inactive: 93%
